According to PubChem BioAssay AID540317 (National Center for Advancing Translational Sciences (NCATS), 2011):
About 2,200 (0.56%) of roughly 390,000 compounds were called active. The shares of active, inactive and inconclusive entries below differ from those in the screen. Calls follow the shape of the dose curve; as a rule, active = well fitted inhibition curve with a large enough effect; inconclusive = small, poorly fitted or top-dose-only effect; inactive = no such curve, though single readings can be large or run the other way. Where the call is inconclusive, the potency comes from a doubtful curve fit.

Target: Chromobox protein homolog 1 (Homo sapiens) (UniProt P83916)
Chain of UniProt P83916 (P83916 whole entry, looked up): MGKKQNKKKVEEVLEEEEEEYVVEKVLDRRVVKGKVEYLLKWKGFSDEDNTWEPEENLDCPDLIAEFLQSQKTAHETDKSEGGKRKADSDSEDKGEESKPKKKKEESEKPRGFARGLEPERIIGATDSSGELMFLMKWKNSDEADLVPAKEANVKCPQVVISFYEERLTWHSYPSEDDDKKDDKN
Assay: HTS for Inhibitors of HP1-beta Chromodomain Interactions with Methylated Histone Tails; also: nearly all actives have a fitted effect of over 70% in size
Settings: AlphaScreen HP1-beta / biotin-H3K9me3 peptide binding; series mostly up to 114 µM
Outline: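 Compound inhibition of the preformed complex between 50 nM HP1-beta and 50 nM biotinylated H3K9me3 peptide was read by AlphaScreen. Buffer was PBS pH 7.4 with 0.01% Tween-20. Incubations ran 30 min at room temperature, with 10 ug/mL donor/acceptor beads.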
Potency is read from the fitted curve at half-maximal effect; tags tell the direction and shape of the fitted curve.

Row | SMILES | Potency
1 | N#CC1=C(N)Nc2ncnn2C1c1ccc(F)cc1 (stereo unspecified) | inactive
2 | O=[N+]([O-])c1ccc(N2CCCCC2)c(Cl)c1N1CCCCC1 | inconclusive: 44.7 µM [inhibitor, partial curve]
3 | COCc1cc(C)nc(SCC(=O)Nc2ccccc2C)c1C#N | inconclusive: 7.08 µM [inhibitor, single point]
4 | COc1ccc(S(=O)(=O)N2CCC(C(=O)Nc3ccc(Oc4ccccc4)cc3)CC2)cc1OC | inactive
5 | CCOc1ccc(-n2cc(-c3ccccc3)c3c(=O)[nH]cnc32)cc1 | inconclusive: 70.8 µM [inhibitor, single point]
6 | Nc1c2c(nc3ccc(Br)cc13)N(c1ccccc1)CC2 | active: 50.1 µM
7 | CCc1ccccc1NC(=O)Cn1nc(-c2cc(C)ccc2C)c2c(c1=O)CCCC2 | inactive
8 | COc1cccc(C(=O)CSc2nnc(CNS(C)(=O)=O)n2-c2ccc(C)cc2)c1 | inconclusive: 89.1 µM [inhibitor, single point]
9 | COc1ccc(C)cc1N=Nc1ccc(O)c2ncccc12 | active: 7.94 µM
10 | NC(=O)CSc1nnc(NC(=O)c2cccc(S(=O)(=O)N3CCCCC3)c2)s1 | inconclusive: 89.1 µM [inhibitor, single point]
11 | Clc1ccc(-c2nn3c(-c4cc(-c5ccccc5)n[nH]4)nnc3s2)cc1 | inactive
12 | Cc1ccc(/C=C/C(=O)N2CCc3ccccc32)o1 | active: 44.7 µM
13 | COc1ccccc1C=NNc1ccc([N+](=O)[O-])cn1 | inactive
14 | Cc1[nH]n(C(N)=S)c(=O)c1N=Nc1ccc2ccccc2c1 | inconclusive: 39.8 µM [inhibitor, partial curve]
15 | CC(C)(C)c1nnc(NS(=O)(=O)c2ccc(F)cc2)s1 | inconclusive: 4.47 µM [inhibitor, full curve]
16 | COc1ccc(C(=O)c2ccsc2N)cc1 | inactive
17 | Cc1ccnc(Nc2nc(-c3sc(C)nc3C)cs2)c1 | inconclusive: 70.8 µM [inhibitor, single point]
18 | Oc1cccc(Nc2nc(O)c(/C=C3\C=Nc4ccccc43)s2)c1 | inactive
19 | CC(=O)N1CCc2c(sc(NC(=O)c3ccc([N+](=O)[O-])o3)c2C#N)C1 | inconclusive: 35.5 µM [inhibitor, partial curve]
20 | Cc1ccc(OCCCCCN2CCOCC2)c(Cl)c1 | active: 50.1 µM
21 | Cc1cc(O)c(-c2cc(O)c(C)cc2O)cc1O | active: 1.78 µM
22 | COc1cc(/C=C/C=C2/CC/C(=C/C=C/c3ccc(O)c(OC)c3)C2=O)ccc1O | inconclusive: 56.2 µM [inhibitor, partial curve, poor fit]
23 | Cc1ccc(C(=O)NNC(=O)CSc2nc(N)cc(N)n2)cc1 | inconclusive: 39.8 µM [inhibitor, single point]

Row | SMILES | Potency
24 | O=C(NCC1CCCO1)c1cc(-c2ccco2)nc2ccccc12 (stereo unspecified) | inconclusive: 70.8 µM [inhibitor, single point]
25 | CC(C)C1=CC(=Nc2ccc(S(N)(=O)=O)cc2)C=C(C(C)C)C1=O | inconclusive: 22.4 µM [inhibitor, full curve]
26 | O=C(CSc1nnc(SCC(=O)c2ccco2)s1)c1ccco1 | inconclusive: 28.2 µM [inhibitor, full curve]
27 | O=C(N/N=C/c1ccc[nH]1)c1cc(-c2cccs2)nc2ccccc12 | inconclusive: 50.1 µM [inhibitor, partial curve]
28 | Cc1ccc(C2C3=C(CCCC3=O)N=C3c4ccccc4C(=O)C32)cc1 (stereo unspecified) | inconclusive: 50.1 µM [inhibitor, partial curve, poor fit]
29 | COc1ccc(NC(=O)Nc2ccc3c(c2)C(=O)N([C@H](C)CO)C[C@H](C)[C@@H](CN(C)S(=O)(=O)c2ccccc2)O3)cc1 | inconclusive: 70.8 µM [inhibitor, partial curve, poor fit]
30 | C[C@H](NC(=O)c1nc[nH]c1C(=O)NCCCCCN)C(=O)OCc1ccccc1 | inactive
31 | NS(=O)(=O)c1ccc(CCNC(=O)C2COc3ccccc3O2)cc1 (stereo unspecified) | inactive
32 | Cc1cc2c(ncn2C(C)C)c(NS(=O)(=O)c2ccc(F)cc2)c1C | inactive
33 | O=[N+]([O-])c1ccc2c(c1)C(=Nc1ccccc1)c1ccccc1-2 | inconclusive: 5.62 µM [inhibitor, partial curve]
34 | N#C/C(=N\Nc1cccc([N+](=O)[O-])c1)C(=O)c1ccc(Br)cc1 | inconclusive: 50.1 µM [inhibitor, partial curve]
35 | CCN1CC(CN(C)Cc2nc(-c3ccc(OC)c4ccccc34)oc2C)CC1=O (stereo unspecified) | inconclusive: 17.8 µM [inhibitor, partial curve]
36 | [O-][n+]1c2ccccc2cc2ccccc21 | inactive
37 | Nc1nc(-c2ccccc2)c(CCCNc2ccccc2)c(=O)[nH]1 | inconclusive: 70.8 µM [inhibitor, partial curve]
38 | COc1ccc(-c2cn3nc(N4CCC(C(=O)Nc5cc(Cl)ccc5OC)CC4)sc3n2)cc1 | inactive
39 | Nc1c(C(=O)Nc2ccc(Cl)cc2F)sc2nc(-c3cccs3)ccc12 | inactive
40 | COc1ccc(CN2CCN(C(=O)c3cccc4ccccc34)CC2)cc1OC | inconclusive: 14.1 µM [inhibitor, partial curve, poor fit]
41 | COc1ccc(C(=O)Nc2ccc(C(=O)OCc3cc(=O)n4nc(C(C)C)sc4n3)cc2)cc1 | inactive
42 | Cc1ccc(Nc2ccc(NCc3ccccc3)nn2)cc1C | inconclusive: 56.2 µM [inhibitor, single point]
43 | Cc1ccc2c(c1)N(C(=O)c1ccco1)C(C)(C)c1ssc(=S)c1-2 | inconclusive: 14.1 µM [inhibitor, full curve, poor fit]
44 | Cc1ccc(C(=O)NC(=S)Nc2ccccc2C(F)(F)F)cc1C | inconclusive: 17.8 µM [inhibitor, partial curve, poor fit]
45 | Clc1ccc2[nH]c3c(c2c1)CCc1cn[nH]c1-3 | inconclusive: 44.7 µM [inhibitor, partial curve, poor fit]
46 | CCN(CC)c1ccc(NC(=O)CCN2C(=O)c3ccccc3S2(=O)=O)c(C)c1 | inactive
